# Source: PubChem BioAssay AID1345083 (National Center for Advancing Translational Sciences (NCATS), 2018)
# Where “and” joins values, the source holds several entries; their conditions need not be identical. Equal values may be shown once. Screen size: about 94,000 compounds; about 6,200 (6.6%) were called active. This list was built around the results that the source calls inconclusive (neither active nor inactive); the mix of calls is not that of the screen. Calls come from the whole dose curve; as a rule, active = well fitted inhibition curve with a large enough effect; inconclusive = small, poorly fitted or top-dose-only effect; inactive = flat fitted curve, though single readings scatter. Potencies of inconclusive entries are doubtful fits and often do not repeat.
# Assay: Cytotoxic Profiling in HEK 293 Cell Line of Diverse Libraries Using Quantitative High-Throughput Screening; note: nearly all actives have a fitted effect of over 60% in size
# Conditions: HEK 293 viability, ATP luminescence (CellTiter-Glo), 48-72 h; activity change, negative = cytotoxicity: at 115 µM (top of the series) unless noted; series mostly up to 115 µM
# Outline: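 Luminescence from cellular ATP, measured with CellTiter-Glo, indicates HEK 293 viability. Cells plated at 250 cells/well are treated with compound for 48 or 72 hr at 37 degree Celsius before reagent addition.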
# % is set by controls: 0 for no effect and ±100 for the full control effect; potency is the fitted concentration of half-maximal effect; tags give direction and shape of the fitted curve.
SMILES,Potency,"activity change, negative = cytotoxicity",outcome
OC[C@@H]1CN(Cc2ccccc2OC(F)(F)F)C[C@H]1c1ccncc1,"inconclusive: 44.7 µM [inhibitor, partial curve, poor fit]",,
CC1(C)[C@H](Cc2cc(CN3CCN(c4ccccc4)CC3)on2)C[C@@H]1NCC1CC1,active: 89.1 µM,,
CC1=C[C@@H](CNC(=O)c2ccncc2)[C@H](C(C)C)C[C@H]1CC(=O)N1CCCC1,,inactive: -19.2% [at 172 µM],
COc1ccc(-c2nn(-c3ccccc3)cc2CN2CCCC(C#N)C2)c(F)c1 (centres undefined),"inconclusive: 89.1 µM [inhibitor, single point]",,
CCc1noc(-c2cn(C3CCN(C(=O)c4ccc(OC(F)(F)F)cc4)C3)nn2)n1 (centres undefined),"inconclusive: 44.7 µM [inhibitor, partial curve, poor fit]",,
Cc1ccc(-n2c(C3CCN(C(=O)c4ccc(F)c(Cl)c4)CC3)n[nH]c2=O)cc1,,inactive: -2.16%,
O=C1c2c(nc(COc3ccc(Cl)cc3)n2Cc2ccccc2)NCCN1CC1CCOCC1,"inconclusive: 50.1 µM [inhibitor, partial curve, poor fit]",,
O=C(NCCc1ccccc1)C1CCN(Cc2ccccc2-c2cccnc2)CC1,"inconclusive: 39.8 µM [inhibitor, partial curve, poor fit]",,
CN(Cc1ccc(N2CCOCC2)cc1)C(=O)[C@H]1CN(Cc2ccccc2)C[C@H]1C(=O)O,"inconclusive: 89.1 µM [inhibitor, partial curve, poor fit]",,
COc1ccccc1CNC[C@H]1O[C@H](Cc2cc(CN(C)C)on2)CC[C@@H]1O,,inactive: -26.2% [at 172 µM],
COc1ccc2[nH]c3c(c2c1)CCNC31CCN(C(=O)c2cc(C)[nH]n2)CC1,"inconclusive: 28.2 µM [inhibitor, full curve]",,
Cc1ccc(-c2ccccc2CN2CCC(C(=O)NCCc3ccccc3)CC2)cc1Cl,"inconclusive: 50.1 µM [inhibitor, partial curve, poor fit] and active: 39.8 µM",,
CNC(=O)c1cc(C)nc2onc(C3CCN(C(=O)NC(C)C)C3)c12 (centres undefined),,inactive: -9.17%,
COC1CN(c2ccc(C)cc2)C12CCN(C(=O)c1cccnc1)CC2 (centres undefined),,inactive: -3.69%,
CCN(C1CCOCC1)C1CN(C(=O)c2ccncc2)C1,,,inactive
C=CCCC(=O)N1CCC(=O)N(CCC#N)C[C@H]2COc3cc(OC)ccc3[C@H]21,,inactive: -5.46%,
COc1cccc(CN2Cc3cc(NC(=O)c4cccs4)ccc3OCC2=O)c1,"inconclusive: 50.1 µM [inhibitor, partial curve, poor fit]",,
CC(C)Cc1ccc(S(=O)(=O)N2CCCC2c2nncn2Cc2ccncc2)cc1 (centres undefined),"inconclusive: 89.1 µM [inhibitor, partial curve, poor fit]",,
Cn1ccc2c(NC(=O)C[C@H]3NC(=O)c4ccccc4NC3=O)cccc21,,inactive: -6.32%,
COc1ccc(CNC(=O)C[C@@H]2C[C@H]3O[C@H](CNC4CCNCC4)[C@@H](O)[C@H]3O2)cc1,,,inactive [at 172 µM]
O=C(NCCCc1ccccc1)c1ccc2oc(-c3ccncc3)nc2c1,"inconclusive: 35.5 µM [inhibitor, full curve]",,
COc1ncccc1-c1cc2c(nc1OC)nc(CCc1ccccc1)n2C,"inconclusive: 31.6 µM [inhibitor, partial curve, poor fit]",,

SMILES,Potency,"activity change, negative = cytotoxicity",outcome
COC1CCOC2(CCN(C(=O)C3(c4ccccc4)CC3)CC2)C1 (centres undefined),,inactive: 2.74%,
CC(C)C(=O)N1CCC(OC2CCN(Cc3ccccc3)CC2)CC1,,inactive: -18.1%,
COc1ccc(-c2cc(N3CCN(C(=O)Cc4cccc(C)c4)CC3)n[nH]2)cc1,"inconclusive: 79.4 µM [inhibitor, single point]",,
CNC(=O)c1cc(C)nc2onc(C3CCN(C(C)=O)CC3)c12,,inactive: -2.16% [at 172 µM],
COc1ccc2cc(C3CN(C(=O)c4cc(C(C)=O)n[nH]4)CCO3)ccc2c1 (centres undefined),"inconclusive: 50.1 µM [inhibitor, partial curve, poor fit]",,
CCC(=O)N1CCC(Oc2ccc(C(=O)N3CCOCC3)cn2)C1 (centres undefined),"inconclusive: 79.4 µM [inhibitor, partial curve, poor fit]",,
O=C(c1ccccc1F)N1CCC(C(=O)N2CCCC(c3nc4ncccc4[nH]3)C2)CC1 (centres undefined),,inactive: -10.3%,
Cc1ccc(Nc2ccnc(N3CCC(N[S+](=O)([O-])c4c(C)noc4C)CC3)n2)cc1,"inconclusive: 44.7 µM [inhibitor, partial curve, poor fit]",,
O=C(Nc1ccc2c(c1)OCCO2)N1CCC(Cc2nncn2Cc2ccccc2)CC1,,inactive: -4.8%,
Cc1cccnc1CN1CCN(CC2(O)CCNC2)CC1 (centres undefined),,inactive: -1.46%,
COc1ccc(CNC(=O)[C@@H]2Cc3cn(Cc4cccnc4)c4cccc(c34)[C@H](CC(C)C)N2)cc1,active: 35.5 µM,,
Cc1cccc(C(=O)N2CCCCCCN(C)C(=O)[C@@H]3CCC[C@@H]32)c1,"inconclusive: 79.4 µM [inhibitor, partial curve, poor fit]",,
Cc1ccc(-n2c(C3CCN(C(=O)c4ccc(F)c(F)c4)CC3)n[nH]c2=O)cc1,,inactive: 11.6%,
Cc1cccc(N2CCN(C(=O)CCn3ccn4nc5c(c4c3=O)CCCC5)CC2)c1,"inconclusive: 100 µM [inhibitor, single point]",,
O=c1n(-c2ccc(C(F)(F)F)cc2)nc2n1CCN(Cc1ccccc1)C2,"inconclusive: 28.2 µM [inhibitor, full curve] and active: 7.94 µM",,
Cc1cc2cc(-c3c(C)noc3C)nc(NCc3ccccc3)c2o1,"inconclusive: 56.2 µM [inhibitor, partial curve, poor fit]",,
CNC(=O)c1cc(C2CC2)nc2c1c(C1CCN(C(=O)c3cccc(Cl)c3)CC1)nn2C,"inconclusive: 39.8 µM [inhibitor, partial curve]",,
COCC(=O)NC1CCN(c2nccc(Nc3ccccc3OC)n2)CC1,"inconclusive: 89.1 µM [inhibitor, single point]",,
CN(Cc1ccccc1)C(=O)c1ccnc(-c2nnc3ccc(N(C)c4ccccc4)nn23)c1,"inconclusive: 50.1 µM [inhibitor, partial curve, poor fit]",,
COc1ccc(CCNC(=O)C2CCCN(c3ccnc4ccnn34)C2)cc1 (centres undefined),,inactive: -8.76%,
Cc1noc(C)c1Cc1ccc(C(=O)N(C)C2CCc3nnc(C)n3CC2)o1 (centres undefined),"inconclusive: 89.1 µM [inhibitor, partial curve, poor fit]",,
COCCn1ncc(N2CCCC(CC(=O)Nc3cc(C)ccc3OC)C2)cc1=O (centres undefined),,inactive: -16%,

SMILES,Potency,"activity change, negative = cytotoxicity",outcome
Cc1cc(=O)n(CC(=O)Nc2ccc(F)cc2)c(N(C)Cc2ccccc2)n1,"inconclusive: 35.5 µM [inhibitor, partial curve]",,
COc1ccc(S(=O)(=O)N2CCC(F)(c3nc(-c4ccncc4)no3)CC2)cc1,"inconclusive: 39.8 µM [inhibitor, partial curve, poor fit]",,
O=C(N1CCC2(CC1)CC(Cc1nc(-c3cnccn3)no1)CCO2)C1(c2ccccc2)CC1 (centres undefined),"inconclusive: 89.1 µM [inhibitor, single point]",,
COc1ccc(CC(=O)NC2CN(c3ccnc4ccnn34)C2)cc1,"inconclusive: 112 µM [inhibitor, single point]",,
CN[C@@H](CC(C)C)C(=O)N[C@@H]1C=C(C(=O)N[C@H]2CCCNC2=O)C[C@@H](O)[C@@H]1O,"inconclusive: 141 µM [inhibitor, single point]",,
CSc1ccc(-c2cccc(CN3CCC(NC(=O)c4c(C)noc4C)CC3)c2)cc1,"inconclusive: 89.1 µM [inhibitor, single point]",,
CC(C)(Oc1nn(Cc2cccc(Cl)c2)c2ccccc12)C(=O)NCC[S+](C)(=O)[O-],"inconclusive: 50.1 µM [inhibitor, partial curve, poor fit]",,
OC(c1cccc(C(F)(F)F)c1)c1nc(Nc2ccc(F)cc2)n[nH]1 (centres undefined),active: 79.4 µM,,
Cc1ccc(C(=O)NCc2nnc3cc(-c4nc(C(C)C)no4)ccn23)cc1,,inactive: 3.69%,
CC(NC(=O)c1csc(N2CCN(c3ccccc3F)CC2)n1)c1ccccc1 (centres undefined),active: 44.7 µM,,
Fc1ccc(CN2CCOC[C@H]2c2ncc(-c3cccc(Cl)c3)[nH]2)cc1,"inconclusive: 70.8 µM [inhibitor, partial curve, poor fit]",,
COc1ccc(Nc2ccnc(N3CCCC3C(=O)NCc3ccccc3)n2)cc1 (centres undefined),"inconclusive: 50.1 µM [inhibitor, partial curve, poor fit]",,
CCn1cc(CN2C[C@@H](CO)[C@H](NC(=O)C3CC3)C2)cn1,,inactive: -1.69%,
COc1cc(OC)cc(C(=O)NCC2CCCN(Cc3cccc(C)n3)C2)c1 (centres undefined),,inactive: -19.3%,
COc1cccc(-c2ccc(C(=O)NCCNC(=O)c3ccc(C)cc3)cc2)c1,"inconclusive: 7.94 µM [inhibitor, full curve, poor fit]",,
CN(C)C(=O)c1cccnc1OC1CCN(C(=O)c2ccc(Br)o2)C1 (centres undefined),"inconclusive: 31.6 µM [inhibitor, partial curve, poor fit]",,
CCCCNC(=O)CC(c1ccc(OC)cc1OC)c1c[nH]c2c(CC)cccc12 (centres undefined),"inconclusive: 79.4 µM [inhibitor, partial curve, poor fit]",,
COCCOC1CCOC2(CCN(C(=O)c3ccccn3)CC2)C1 (centres undefined),,inactive: 12.7%,
COc1ccc(CCc2nc3nccc(-c4ccccc4)n3n2)cc1OC,"inconclusive: 56.2 µM [inhibitor, partial curve, poor fit]",,
O=C(NCCC1=CCCCC1)c1nnn2cc(-c3ccccc3)[nH]c(=O)c12,"inconclusive: 50.1 µM [inhibitor, partial curve, poor fit]",,
